“And” between values parts separate entries of the source, which are not always exact repeats. Equal entries are not always repeated. In all, about 48,000 compounds went through this assay and about 120 (0.25%) were called active. Not shown: some 4% with an inconclusive outcome. Calls follow the shape of the dose curve; as a rule, active = well fitted activation curve with a large enough effect; inconclusive = small, poorly fitted or top-dose-only effect, or another doubt; inactive = no such curve, though single readings can be large or run the other way. The list shows a part of the results, in another mix than the full data. The source gives no active or inactive call for entries shown without one.
Test: Primary qHTS for Identification of Small Molecule Activators of Huntingtin-Antisense Promoter Activity; also: nearly all actives have a fitted effect of over 55% in size
Conditions: HEK293 HTT-AS promoter firefly luciferase reporter, 24 h; activity change, positive = activation: at 57.5 µM (top of the series), percent change from vehicle, -100% = no light
Summary of the method: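 HEK293 Fluc reporter, 2,500 cells/well, 24 h pre-culture; cpds up to 57.5 uM final, 24 h 37 degrees C; Dual-Glo, 10 min RT; normalized vehicle = 0%, zero RLU = -100%.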
Potency is read from the fitted curve at half-maximal effect.

SMILES | activity change, positive = activation | Potency
Cc1cc(C)cc(NC(=O)CCc2c(C)nn(-c3ccc(N4CCCC4)nn3)c2C)c1 | 24.8% | 
COc1ccc(-c2cc(C(C)=O)c(C)n2CCC(=O)Nc2cc(C)ccc2OC)cc1 | inactive: -21.8% | 
COc1ccccc1CCNC(=O)Cc1c(C)c2ccc(O)cc2oc1=O | -6.52% | 
COc1cccc(N2C(=O)C(CC(=O)Nc3cccc(F)c3)N(C(C)C)C2=O)c1 (stereo not drawn) | 1.53% | 
COc1ccc(-c2nnc(Nc3ccc(OCC(N)=O)cc3)c3ccccc23)cc1 | -21.4% | 
O=C(CCN1CCN(CCO)CC1)Nc1ccc(Br)cc1 | -6.29% | 
COc1ccc(C)cc1NC(=O)c1cc2ccccn2n1 | 50.3% | 
COc1ccc(N2CCN(C(=O)COc3ccccc3C#N)CC2)cc1 | 3.66% | 
COc1ccc(-c2cc(C(=O)Nc3cc(C)nn3-c3ccccc3)no2)cc1OC | -8.15% | 
CC1Cc2cc(S(=O)(=O)NCc3ccc(Cl)cc3)ccc2N1C(=O)C1CCC1 (stereo not drawn) | -37.2% | 
O=C(NCc1ccccc1)c1nc(-c2ccc(Cl)cc2)n2c1CCCCC2 | -21% | 
Cc1ccccc1NC(=O)CCn1nc(-c2ccc(Cl)cc2)c2ccccc2c1=O | -8.83% | 
Cc1ccc(CN2C(=O)CN(C3CCCCCC3)C(=O)C2c2ccc(F)cc2)cc1 (stereo not drawn) | -21.5% | 
COc1cccc2cc(-c3nc4ccc(C)cc4[nH]3)c(=O)oc12 |  | active: 316 nM
NNc1nncc2ccccc12 |  | active: 2.24 µM and active: 7.69 µM
O=C(CSc1nnc2[nH]c(=O)cc(-c3ccccc3)n12)Nc1ccccc1C(F)(F)F |  | active: 11200 nM
Cc1ccc(SCCNC(=O)CN(c2cccc(C)c2C)S(C)(=O)=O)cc1 | inactive: -38.1% | 
CCOC(=O)CCc1c(C)c2cc3c(c(C)c2oc1=O)OCN(CCc1ccccc1OC)C3 | -22.7% | 
Cc1cc(N2CCN(C)CC2)nc2ccc(NC(=O)Nc3ccc(F)cc3)cc12 | inactive: 9.22% | 
O=C(Nc1nc2nc(-c3ccccc3)cc(=O)n2[nH]1)c1ccc(F)cc1 | inactive: -8.24% | 
Cc1ccc(C)c(OCCOCCn2c(-c3ccc(Br)cc3)nc3ccccc3c2=O)c1C | 3.17% | 
CCOC(=O)c1cccc(NC(=O)CC(c2ccc(F)cc2)N2Cc3ccccc3C2=O)c1 (stereo not drawn) | 11.4% | 
COc1ccc(Br)cc1CNC(=O)C1CCCCN1S(=O)(=O)c1ccc(F)cc1 (stereo not drawn) | -16.1% | 
Cc1ccc(Nc2nc3ccccc3c3nncn23)cc1C | -1.3% | 

SMILES | activity change, positive = activation | Potency
N#C/C(=C\c1ccc(-c2cc(Cl)ccc2Cl)o1)C(=O)Nc1ccccc1C(=O)O | inactive: -4.12% | 
COc1cc(-c2nnc(SCCOc3ccc(C)c(Cl)c3)o2)cc(OC)c1OC | -3.63% | 
CCCS(=O)(=O)Nc1cc2c(cc1NCc1ccccc1)n(C)c(=O)n2C | 44.2% | 
Cn1cnc2c(=O)oc3ccc(S(=O)(=O)N4CCN(c5cccc(Cl)c5)CC4)cc3c21 | -2.22% | 
O=C(CSc1nc(-c2cccs2)nc2cc(=O)[nH]n12)Nc1ccc(F)cc1 | -6.17% | 
CCOC(=O)c1c(N)n(-c2cccc(C)c2C)c2nc3ccccc3nc12 | -2.57% | 
COc1ccc(S(=O)(=O)Nc2cccc(-c3ccc(N4CCCCCC4)nn3)c2)c(OC)c1 | 27.2% | 
O=C(CSc1nc(-c2cccs2)nc2cc(=O)[nH]n12)Nc1ccccc1Cl | -7.97% | 
Cc1ccccc1-c1noc(-c2nnn(-c3ccccc3C)c2N)n1 |  | active: 708 nM
CCc1nn(CC(=O)NCCOC)c(=O)c2cc3cc(F)ccc3n12 | 3.3% | 
CNc1nc2c(c(=O)n(C)c(=O)n2C)n1CC(O)COc1ccc(OC)cc1 (stereo not drawn) | -29.1% | 
Cc1nc2ccn(Cc3ccco3)c(=O)c2cc1C(=O)N1CCN(c2ccc(F)cc2)CC1 | -18.6% | 
CCCOc1ccc(C2C(=O)N(C3CCCCCC3)CC(=O)N2CCC)cc1OC (stereo not drawn) | -24.6% | 
O=C1OC(C(=O)Nc2cc(C(F)(F)F)ccc2Cl)Cc2ccccc21 (stereo not drawn) | -10.4% | 
O=C(O)c1cc(-c2ccccc2)nc2ccccc12 | inactive: 15.2% [at 116 µM, percent change from vehicle, -100% = no light] | 
COc1ccc(-c2cc(C(=O)N3CCN(c4ccccc4)CC3)no2)cc1 | 13.6% | 
COc1ccc(OC)c(S(=O)(=O)N2CCC(n3c(C)nc4cccnc43)CC2)c1 | -5.06% | 
CCc1ccc(CNC(=O)CCc2c(C)nn(-c3ccc(N4CCCC4)nn3)c2C)cc1 | -21.5% | 
CCOc1ccccc1NC(=O)CCc1c(C)nn(-c2ccc(N3CCCCC3)nn2)c1C | -22.6% | 
Cc1ccc(-c2c3c(=O)n(C)c(=O)n(C)c3c3n2-c2ccccc2NC3c2ccc(C)cc2O)cc1 (stereo not drawn) | -32.5% | 
COc1ccc(N2CCN(C(=O)c3cc4c(=O)n(Cc5ccco5)ccc4nc3C)CC2)cc1 | -23.7% | 
CCc1cccc(NS(=O)(=O)c2ccc3c(c2)CC(C)N3C(=O)C2CC2)c1 (stereo not drawn) | inactive: -78.9% | 
CCc1c(C)c2ccc(O)c(CN3CCN(c4ccc(F)cc4)CC3)c2oc1=O | -13.8% | 
CCOc1ccc(C2C(=O)N(C3CCCCC3)CC(=O)N2C2CCCC2)cc1OC (stereo not drawn) | -21.9% | 

From PubChem BioAssay AID1508624 (National Center for Advancing Translational Sciences (NCATS), 2021)
